Measured values from paper PMC5892938.
This is one part of the list. At the low end of the ranking, values are background and their order means little.

Biological target: GST-SBP-SLBP (stem-loop binding protein) (UniProt Q14493)
Assay: targeted RNA Bind-n-Seq;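 also: DESeq read counts versus GST-SBP nonspecific binding control pulldown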
Conditions: RBNS binding buffer: 25 mM Tris pH 7.5, 150 mM KCl, 3 mM MgCl2, 0.1% Tween, 0.5 mg/mL BSA, 1 mM DTT; 27 nM protein, 750 pM RNA pool; temperature not stated; high values mean tight binding

| Sequence | binding signal (log2 fold change) |
| --- | --- |
| GGUCACGUCUCAAUCAACUCAGUUCCAGGAGUUUCCUCCUGUAUAUUCAACAGCUCGCAGUCAAG | -0.059 |
| GGUCACGUCUCAAUCAACUCAACGCCAGGAGUUUACUCCUGCUAAUUCAACAGCUCGCAGUCAAG | -0.0116 |
| GGUCACGUCUCAAUCAACUCUCAAGAGGGGGGGAAAACCCCUUUACCCUCGUCAUCAACAGCUCGCAGUCAAG | -0.424 |
| GGUCACGUCUCAAUCAACUCUUCUCCCAGGGAAAUCCCUGGUUUUUUCAACAGCUCGCAGUCAAG | -0.12 |
| GGUCACGUCUCAAUCAACUCAAUUUCAGGAGUUUACUCCUGUAUAUUCAACAGCUCGCAGUCAAG | 0.124 |
| GGUCACGUCUCAAUCAACUCAUCCUCAGGAGUUUGCUCCUGCAAUCUCAACAGCUCGCAGUCAAG | 0.164 |
| GGUCACGUCUCAAUCAACUCAUCCCCAGGAGUUUUCUCCUGUUAAGUCAACAGCUCGCAGUCAAG | 0.213 |
| GGUCACGUCUCAAUCAACUCUAUCCCCAGGGAAACCCCUGGCUUUCUCAACAGCUCGCAGUCAAG | -0.0276 |
| GGUCACGUCUCAAUCAACUCUACUCCAGGAGUUUUCUCCUGCAUAUUCAACAGCUCGCAGUCAAG | -0.074 |
| GGUCACGUCUCAAUCAACUCAUCCUCAGGAGUUUCCUCCUGCUAAUUCAACAGCUCGCAGUCAAG | 0.166 |
| GGUCACGUCUCAAUCAACUCUUUCUCCAGGGAAAACCCUGGCAAUGUCAACAGCUCGCAGUCAAG | -0.0529 |
| GGUCACGUCUCAAUCAACUCACUAGAGGGGGGGAAAACCCCUUUGCCCUCCAAUUCAACAGCUCGCAGUCAAG | 0.242 |
| GGUCACGUCUCAAUCAACUCAACAGAGGGGGGGAAAACCCCUUUACCCUCAACCUCAACAGCUCGCAGUCAAG | -0.196 |
| GGUCACGUCUCAAUCAACUCUUUCUCCAGGGAAAUCCCUGGUAUUUUCAACAGCUCGCAGUCAAG | -0.0653 |
| GGUCACGUCUCAAUCAACUCAAUCUCAGGAGUUUCCUCCUGCUUAGUCAACAGCUCGCAGUCAAG | -0.0715 |
| GGUCACGUCUCAAUCAACUCUAUUCCAGGAGUUUUCUCCUGUUUAUUCAACAGCUCGCAGUCAAG | 0.0461 |
| GGUCACGUCUCAAUCAACUCCUCAGAGGGGGGGAAAACCCCUUUACCCUCCUACUCAACAGCUCGCAGUCAAG | 0.136 |
| GGUCACGUCUCAAUCAACUCAUUUCCCAGGGAAAUCCCUGGUAUAUUCAACAGCUCGCAGUCAAG | 0.00231 |
| GGUCACGUCUCAAUCAACUCCUUAGAGGGGGGGAAAACCCCUUUACCCUCCAUUUCAACAGCUCGCAGUCAAG | -0.351 |
| GGUCACGUCUCAAUCAACUCUUUCUCAGGAGUUUACUCCUGCAUUCUCAACAGCUCGCAGUCAAG | 0.057 |
| GGUCACGUCUCAAUCAACUCUAUUCCCAGGGAAAUCCCUGGCAUUUUCAACAGCUCGCAGUCAAG | -0.0376 |
| GGUCACGUCUCAAUCAACUCUAUCGAGGGGGGGAAAACCCCUUUGCCCUCACUAUCAACAGCUCGCAGUCAAG | -0.253 |
| GGUCACGUCUCAAUCAACUCAUUUUCCAGGGAAAGCCCUGGCAAUUUCAACAGCUCGCAGUCAAG | 0.224 |
| GGUCACGUCUCAAUCAACUCAUUCCCAGGAGUUUGCUCCUGCUAAUUCAACAGCUCGCAGUCAAG | 0.105 |
| GGUCACGUCUCAAUCAACUCUUACGAGGGGGGGAAAACCCCUUUACCCUCAACCUCAACAGCUCGCAGUCAAG | -0.16 |

| Sequence | binding signal (log2 fold change) |
| --- | --- |
| GGUCACGUCUCAAUCAACUCAUCCUCAGGAGUUUCCUCCUGCUAUCUCAACAGCUCGCAGUCAAG | 0.286 |
| GGUCACGUCUCAAUCAACUCAACUUCCAGGGAAAUCCCUGGCUAUUUCAACAGCUCGCAGUCAAG | 0.206 |
| GGUCACGUCUCAAUCAACUCAUCGUCCAGGGAAAUCCCUGGUUUAUUCAACAGCUCGCAGUCAAG | -0.0855 |
| GGUCACGUCUCAAUCAACUCAGUCUCCAGGGAAAGCCCUGGUUAAUUCAACAGCUCGCAGUCAAG | 0.103 |
| GGUCACGUCUCAAUCAACUCUUCUUCCAGGGAAAGCCCUGGCUUAUUCAACAGCUCGCAGUCAAG | 0.0973 |
| GGUCACGUCUCAAUCAACUCAUUUCCCAGGGAAAACCCUGGCAAUUUCAACAGCUCGCAGUCAAG | 0.104 |
| GGUCACGUCUCAAUCAACUCCAAUGAGGGGGGGAAAACCCCUUUACCCUCCACAUCAACAGCUCGCAGUCAAG | -0.219 |
| GGUCACGUCUCAAUCAACUCUCUAGAGGGGGGGAAAACCCCUUUACCCUCCGCAUCAACAGCUCGCAGUCAAG | -0.111 |
| GGUCACGUCUCAAUCAACUCUAUCUCAGGAGUUUACUCCUGCUAACUCAACAGCUCGCAGUCAAG | 0.194 |
| GGUCACGUCUCAAUCAACUCAUCUUCAGGAGUUUUCUCCUGCUUUGUCAACAGCUCGCAGUCAAG | 0.0558 |
| GGUCACGUCUCAAUCAACUCAACGCCAGGAGUUUACUCCUGUAUUUUCAACAGCUCGCAGUCAAG | 0.154 |
| GGUCACGUCUCAAUCAACUCAAUCUCCAGGGAAACCCCUGGCAUACUCAACAGCUCGCAGUCAAG | 0.0885 |
| GGUCACGUCUCAAUCAACUCAUCUUCAGGAGUUUUCUCCUGUUAAUUCAACAGCUCGCAGUCAAG | 0.095 |
| GGUCACGUCUCAAUCAACUCAUUCUCCAGGGAAAUCCCUGGCUUUUUCAACAGCUCGCAGUCAAG | -0.184 |
| GGUCACGUCUCAAUCAACUCUCACGAGGGGGGGAAAACCCCUUUACCCUCUAUAUCAACAGCUCGCAGUCAAG | 0.0435 |
| GGUCACGUCUCAAUCAACUCUUCCUCCAGGGAAAGCCCUGGCUAUGUCAACAGCUCGCAGUCAAG | 0.049 |
| GGUCACGUCUCAAUCAACUCAAUCCCAGGAGUUUCCUCCUGUUUACUCAACAGCUCGCAGUCAAG | -0.095 |
| GGUCACGUCUCAAUCAACUCUACUUCCAGGGAAACCCCUGGUAUUUUCAACAGCUCGCAGUCAAG | -0.392 |
| GGUCACGUCUCAAUCAACUCUUUUUCCAGGGAAAGCCCUGGUAUUCUCAACAGCUCGCAGUCAAG | -0.049 |
| GGUCACGUCUCAAUCAACUCAUCCCCCAGGGAAAACCCUGGUUAUCUCAACAGCUCGCAGUCAAG | 0.114 |
| GGUCACGUCUCAAUCAACUCAAUCUCCAGGGAAAACCCUGGCUUUCUCAACAGCUCGCAGUCAAG | -0.0422 |
| GGUCACGUCUCAAUCAACUCAGUCCCAGGAGUUUCCUCCUGCUAUUUCAACAGCUCGCAGUCAAG | -0.0518 |
| GGUCACGUCUCAAUCAACUCAUCCUCCAGGGAAACCCCUGGCUUACUCAACAGCUCGCAGUCAAG | 0.0248 |
| GGUCACGUCUCAAUCAACUCAUCGCCAGGAGUUUUCUCCUGCUAUCUCAACAGCUCGCAGUCAAG | -0.0669 |
| GGUCACGUCUCAAUCAACUCAUUCCCAGGAGUUUCCUCCUGUUAACUCAACAGCUCGCAGUCAAG | -0.0425 |

| Sequence | binding signal (log2 fold change) |
| --- | --- |
| GGUCACGUCUCAAUCAACUCAAUCCCCAGGGAAAACCCUGGUUUACUCAACAGCUCGCAGUCAAG | 0.0534 |
| GGUCACGUCUCAAUCAACUCAUUCUCAGGAGUUUACUCCUGCAUUUUCAACAGCUCGCAGUCAAG | -0.111 |
| GGUCACGUCUCAAUCAACUCUUCCCCCAGGGAAAACCCUGGUUUACUCAACAGCUCGCAGUCAAG | 0.197 |
| GGUCACGUCUCAAUCAACUCUACUCCCAGGGAAAUCCCUGGUAAUCUCAACAGCUCGCAGUCAAG | -0.0786 |
| GGUCACGUCUCAAUCAACUCAGUCUCCAGGGAAAGCCCUGGCAAUUUCAACAGCUCGCAGUCAAG | -0.219 |
| GGUCACGUCUCAAUCAACUCUUCCCCCAGGGAAAGCCCUGGUAAUCUCAACAGCUCGCAGUCAAG | 0.238 |
| GGUCACGUCUCAAUCAACUCUACUCCAGGAGUUUACUCCUGCAAUCUCAACAGCUCGCAGUCAAG | -0.047 |
| GGUCACGUCUCAAUCAACUCAUUUUCAGGAGUUUCCUCCUGCUUUGUCAACAGCUCGCAGUCAAG | 0.0348 |
| GGUCACGUCUCAAUCAACUCAUCGUCAGGAGUUUACUCCUGCUUUCUCAACAGCUCGCAGUCAAG | -0.0244 |
| GGUCACGUCUCAAUCAACUCAUGUCCAGGAGUUUUCUCCUGUUUUCUCAACAGCUCGCAGUCAAG | 0.0263 |
| GGUCACGUCUCAAUCAACUCAUCCCCAGGAGUUUUCUCCUGUUUUUUCAACAGCUCGCAGUCAAG | -0.105 |
| GGUCACGUCUCAAUCAACUCAUUCCCCAGGGAAAACCCUGGUAAACUCAACAGCUCGCAGUCAAG | 0.156 |
| GGUCACGUCUCAAUCAACUCUUUCCCAGGAGUUUCCUCCUGUAAAUUCAACAGCUCGCAGUCAAG | -0.019 |
| GGUCACGUCUCAAUCAACUCCUCCGAGGGGGGGAAAACCCCUUUACCCUCAAUUUCAACAGCUCGCAGUCAAG | -0.59 |
| GGUCACGUCUCAAUCAACUCAACUCCCAGGGAAAACCCUGGUAUUCUCAACAGCUCGCAGUCAAG | 0.205 |
| GGUCACGUCUCAAUCAACUCAUCGCCCAGGGAAAACCCUGGUUAUUUCAACAGCUCGCAGUCAAG | -0.0781 |
| GGUCACGUCUCAAUCAACUCAUCUCCCAGGGAAAGCCCUGGCAAUUUCAACAGCUCGCAGUCAAG | -0.338 |
| GGUCACGUCUCAAUCAACUCAUUCUCCAGGGAAAACCCUGGCAUUUUCAACAGCUCGCAGUCAAG | -0.0686 |
| GGUCACGUCUCAAUCAACUCCCUAGAGGGGGGGAAAACCCCUUUACCCUCGAUAUCAACAGCUCGCAGUCAAG | 0.231 |
| GGUCACGUCUCAAUCAACUCUAUUUCAGGAGUUUACUCCUGUAUUCUCAACAGCUCGCAGUCAAG | 0.0297 |
| GGUCACGUCUCAAUCAACUCUUCUUCCAGGGAAAGCCCUGGCUAUCUCAACAGCUCGCAGUCAAG | -0.14 |
| GGUCACGUCUCAAUCAACUCAACGCCAGGAGUUUACUCCUGUUUAUUCAACAGCUCGCAGUCAAG | -0.0292 |
| GGUCACGUCUCAAUCAACUCAAUCCCCAGGGAAACCCCUGGCUUACUCAACAGCUCGCAGUCAAG | -0.337 |
| GGUCACGUCUCAAUCAACUCUACUCCCAGGGAAAGCCCUGGCUAAUUCAACAGCUCGCAGUCAAG | -0.0595 |
| GGUCACGUCUCAAUCAACUCUAUCCCCAGGGAAAUCCCUGGCUAAUUCAACAGCUCGCAGUCAAG | 0.107 |
